{
  "source": "PubChem BioAssay AID485341",
  "about": "(National Center for Advancing Translational Sciences (NCATS), 2010)",
  "note": "The campaign covered roughly 330,000 compounds. About 1,700 (0.52%) were called active. The shares of active, inactive and inconclusive entries below differ from those in the screen. The call rests on the fitted dose curve; in most records, active means well fitted inhibition curve with a large enough effect; inconclusive means small, poorly fitted or top-dose-only effect; inactive means no such curve, though single readings can be large or run the other way. Potencies beside an inconclusive call are fits to weak or partial responses and may not hold up. Potency means the concentration at half of the fitted maximal effect; tags describe the fitted curve by direction and shape.",
  "data": [
    {"target": "Beta-lactamase (Escherichia coli (strain K12)) (UniProt P00811)", "sequence (P00811 whole entry, looked up)": "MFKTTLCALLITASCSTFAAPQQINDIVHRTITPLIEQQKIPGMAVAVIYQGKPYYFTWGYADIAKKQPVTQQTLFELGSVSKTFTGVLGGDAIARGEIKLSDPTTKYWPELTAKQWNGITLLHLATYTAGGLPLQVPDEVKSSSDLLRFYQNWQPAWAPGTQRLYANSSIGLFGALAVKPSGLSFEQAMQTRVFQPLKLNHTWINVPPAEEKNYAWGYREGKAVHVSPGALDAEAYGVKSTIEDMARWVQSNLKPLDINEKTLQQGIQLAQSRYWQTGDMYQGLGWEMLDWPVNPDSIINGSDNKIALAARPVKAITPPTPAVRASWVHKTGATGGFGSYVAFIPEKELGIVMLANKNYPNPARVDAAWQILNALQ", "test": "qHTS Inhibitors of AmpC Beta-Lactamase (assay without detergent); further: nearly all actives have a fitted effect of over 20% in size;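 on activity change, negative = inhibition: plate controls were no compound for no effect and no enzyme for full effect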", "conditions": "AmpC nitrocefin hydrolysis, absorbance 480 nm, 0.0001% Triton; activity change, negative = inhibition: at 57.1 µM (top of the series) unless noted", "in_short": "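20 mM phosphate pH 7.0 + 0.01% (detergent screen) or 0.0001% Triton X-100; 5.3 nM AmpC reagent; cpd preinc 15 min RT; nitrocefin (800 uM stock) to start; A480 q20 s × 4 min; Activity was normalised to no-enzyme and no-compound control wells.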", "values": [
      {"smiles": "O=c1nccc(SCc2ccc(Cl)cc2Cl)[nH]1", "Potency": "inactive"},
      {"smiles": "O=C(c1cc2ccccc2oc1=O)N1CCN(C(=O)C2CCCO2)CC1", "note": "(centres undefined)", "Potency": "inconclusive: 7.08 µM [inhibitor, single point]"},
      {"smiles": "C=CCc1cccc(/C=N/NC(=O)CCC(=O)Nc2ccc(C)cc2)c1O", "Potency": "inconclusive: 28.2 µM [inhibitor, partial curve]"},
      {"smiles": "CCc1noc(C)c1C(=O)Nc1nc(-c2ccc(OC)cc2OC)cs1", "Potency": "inconclusive: 39.8 µM [inhibitor, single point]"},
      {"smiles": "Cc1ccccc1CNC(=O)c1ccc(CSCc2ccccc2)cc1", "Potency": "inconclusive: 5.62 µM [inhibitor, single point]"},
      {"smiles": "N#Cc1ccc2c(c1)C[C@]1(CCCCN3C(=O)c4ccccc4C3=O)OC3=C(C(=O)OC4(CCCCC4)C3)C2O1", "activity change, negative = inhibition": "inactive: -52% [at 11.4 µM]"},
      {"smiles": "OC(CNCCCN1CCCCC1)COc1ccccc1", "note": "(centres undefined)", "Potency": "inactive"},
      {"smiles": "Cc1ccc(N(C)C(=O)N2CCN(c3ccccn3)CC2)cc1", "Potency": "active: 10 µM"},
      {"smiles": "N#CCC(=O)N/N=C/c1ccc(Sc2nc3ccccc3s2)o1", "Potency": "inconclusive: 31.6 µM [inhibitor, single point]"},
      {"smiles": "COc1cccc(C2CC(c3cccc(OC)c3)n3nc(N)nc3N2)c1", "note": "(centres undefined)", "Potency": "inconclusive: 7.08 µM [inhibitor, full curve, poor fit]"},
      {"smiles": "COC(=O)c1ccc(NC(=S)NC(=O)c2c(Cl)cnn2C)cc1", "Potency": "inconclusive: 10 µM [inhibitor, partial curve]"},
      {"smiles": "C/C(=N\\NC(=O)CSCc1ccccc1Cl)c1cccc(NC(=O)c2ccccc2)c1", "Potency": "active: 22.4 µM"},
      {"smiles": "Cc1ccc(CNC(=O)c2cc3c(C)nc4ccccc4c3o2)cc1", "Potency": "inconclusive: 2.82 µM [inhibitor, full curve, poor fit]"},
      {"smiles": "Cc1nc(-c2ccccc2)sc1C(=O)CSc1ccccc1", "Potency": "inconclusive: 0.158 µM [inhibitor, full curve, poor fit]"},
      {"smiles": "Cc1ccc(-n2cccc2/C=C2\\C(=N)N3N=C(C(C)C)SC3=NC2=O)cc1", "Potency": "active: 15.8 µM"},
      {"smiles": "O=C(Cc1ccccc1[N+](=O)[O-])OCC(=O)c1c[nH]c2ccccc12", "Potency": "active: 10 µM"},
      {"smiles": "CCc1ccc(/C=C(/C#N)C(N)=S)cc1", "Potency": "inconclusive: 8.91 µM [inhibitor, full curve, poor fit]"},
      {"smiles": "Cc1ccc(SCc2nc(-c3ccccc3)no2)cc1", "Potency": "inconclusive: 22.4 µM [inhibitor, partial curve]"},
      {"smiles": "O=C(NC1CCCCC1)c1cccc(S(=O)(=O)N2CCOCC2)c1", "Potency": "inconclusive: 5.62 µM [inhibitor, single point]"},
      {"smiles": "COc1ccccc1N(Cc1cc2ccc(C)cc2[nH]c1=O)C(C)=O", "Potency": "inactive"},
      {"smiles": "COc1ccc2nc(Nc3nc4cc5c(cc4s3)OCO5)sc2c1", "Potency": "active: 22.4 µM"},
      {"smiles": "O=C(O)C1Nc2c(O)cccc2C2C=CCC12", "note": "(centres undefined)", "Potency": "inconclusive: 28.2 µM [inhibitor, single point]"},
      {"smiles": "CCOC(=O)C(c1ccccc1)C(Nc1ccc(Cl)c(Cl)c1)c1ccccn1", "note": "(centres undefined)", "Potency": "inactive"},
      {"smiles": "CC1C(=O)N2CCCc3cc(NC(=O)C(=O)NCCc4ccc(F)cc4)cc1c32", "note": "(centres undefined)", "Potency": "inconclusive: 31.6 µM [inhibitor, single point]"},
      {"smiles": "CCOc1ccc(CCNC(=O)COC(=O)c2cccc(S(=O)(=O)N3CCCC3)c2)cc1OCC", "Potency": "inconclusive: 35.5 µM [inhibitor, single point]"},
      {"smiles": "COc1ccc(C2CC(c3ccccc3C)n3nc(N)nc3N2)cc1", "note": "(centres undefined)", "Potency": "inconclusive: 100 µM [inhibitor, partial curve, poor fit]"},
      {"smiles": "COc1ccc(CNC(=O)c2c(C)oc3c2C(=O)c2ccccc2C3=O)cc1", "Potency": "inactive"},
      {"smiles": "CCOC(=O)n1c(=O)n(C)c2ccc(Cl)cc21", "Potency": "inactive"},
      {"smiles": "Cc1ccc(NC(=O)COc2ccc(/C=N/NC(=O)CSCc3ccccc3)cc2)cc1", "Potency": "inconclusive: 3.98 µM [inhibitor, single point]"},
      {"smiles": "CCc1cc2c(=O)c(-c3ccc4c(c3)OCO4)coc2c(CN(C)C)c1O", "Potency": "active: 25.1 µM"},
      {"smiles": "COc1cccc(C2c3[nH]c4ccccc4c3C[C@H]3C(=O)N(C4CC4)CC(=O)N23)c1", "note": "(some centres undefined)", "Potency": "inactive"},
      {"smiles": "CN(C)c1nc(N)nc(Nc2ccccc2C#N)n1", "Potency": "active: 0.199 µM"},
      {"smiles": "COc1cccc(NC(=O)C2CSC3(C)CCC(=O)N23)c1", "note": "(centres undefined)", "Potency": "inconclusive: 39.8 µM [inhibitor, single point]"},
      {"smiles": "Cc1cccc(OCCSc2nc3ncnc(N)c3[nH]2)c1", "Potency": "inconclusive: 28.2 µM [inhibitor, partial curve]"},
      {"smiles": "COc1ccc(OC)c(C2C(C#N)=C(N)Oc3cc(N)ccc32)c1", "note": "(centres undefined)", "Potency": "inconclusive: 39.8 µM [inhibitor, single point]"},
      {"smiles": "CCOC(=O)c1cccc(NC2c3ccccc3C(=O)N2Cc2ccco2)c1", "note": "(centres undefined)", "Potency": "active: 0.891 µM"},
      {"smiles": "Cc1cc(F)ccc1NCc1cc2c(cc1[N+](=O)[O-])OCO2", "Potency": "inconclusive: 1.26 µM [inhibitor, partial curve, poor fit]"},
      {"smiles": "O=C(O)c1cccc2c1NC(c1cccc([N+](=O)[O-])c1)C1CC(Sc3ccccc3[N+](=O)[O-])C(Cl)C21", "note": "(centres undefined)", "Potency": "inconclusive: 17.8 µM [inhibitor, partial curve]"},
      {"smiles": "Cc1nn(-c2ccccc2)c(C)c1/C=N/NC(=O)c1ccccc1O", "Potency": "inconclusive: 11.2 µM [inhibitor, partial curve, poor fit]"},
      {"smiles": "CSc1nsc(/C=C/Nc2ccc(F)cc2F)c1C#N", "activity change, negative = inhibition": "inconclusive: -75.6% [inhibitor]"},
      {"smiles": "CCOc1c2ccc(C(=O)NCc3ccc4c(c3)OCO4)cc2nn1C", "Potency": "active: 0.316 µM"},
      {"smiles": "Cc1onc(-c2ccccc2)c1C(=O)N/N=C/c1cc2c(cc1Cl)OCO2", "Potency": "inconclusive: 22.4 µM [inhibitor, single point]"},
      {"smiles": "CSc1nc2ccsc2c(=O)n1-c1ccccc1", "Potency": "inactive"},
      {"smiles": "COc1ccc(C2c3sc(=O)[nH]c3SC3C(=O)N(c4ccccc4)C(=O)C32)cc1", "note": "(centres undefined)", "Potency": "inconclusive: 50.1 µM [inhibitor, partial curve, poor fit]"},
      {"smiles": "COc1ccc(C(=O)NNC(=O)c2ccncc2)cc1[N+](=O)[O-]", "Potency": "inactive"},
      {"smiles": "NS(=O)(=O)c1ccc(NC(=S)NC2CCCCCC2)cc1", "Potency": "inconclusive: 39.8 µM [inhibitor, single point]"},
      {"smiles": "Clc1cccc(Cl)c1-c1nnc2ccc(N3CCOCC3)nn12", "Potency": "active: 0.501 µM"},
      {"smiles": "O=C1/C(=C\\c2ccccn2)SC(=S)N1c1ccc(S(=O)(=O)Nc2nccs2)cc1", "Potency": "inconclusive: 39.8 µM [inhibitor, single point]"},
      {"smiles": "Cc1ccc2nc(/C(C#N)=C/c3ccccc3C(=O)O)[nH]c2c1", "Potency": "inconclusive: 20 µM [inhibitor, partial curve]"},
      {"smiles": "CCCCNC(=O)c1ccccc1C(=O)NCCCC", "Potency": "active: 1.12 µM"},
      {"smiles": "Cc1cc(C)c2c(=O)n(CC(=O)NCCCN3CCOCC3)sc2n1", "Potency": "active: 14.1 µM"},
      {"smiles": "O=C(Nc1nc2c(ccc3ccccc32)s1)c1ccco1", "Potency": "inactive"},
      {"smiles": "Cc1cc(=O)[nH]c(SCC(=O)Nc2ccc(Br)cn2)n1", "Potency": "active: 1.26 µM"},
      {"smiles": "CN(C)c1cc(Cl)c2nonc2c1N", "Potency": "inconclusive: 39.8 µM [inhibitor, single point]"},
      {"smiles": "CC1CC(C)CN(C(=O)CSc2nc(Cc3cccs3)nc3ccccc23)C1", "note": "(centres undefined)", "Potency": "inconclusive: 8.91 µM [inhibitor, single point]"},
      {"smiles": "COc1ccc(OCC(O)CN2CCC(CN3C(=O)c4cccc5cccc(c45)C3=O)CC2)cc1", "note": "(centres undefined)", "Potency": "inactive"},
      {"smiles": "O=C(Nc1ccc(N2CCOCC2)cc1)C1=NN(c2ccccc2)C(=O)CC1", "Potency": "inactive"},
      {"smiles": "Cc1ccc(OCCNC(=O)c2ccc(COc3ccccc3)o2)cc1", "Potency": "inconclusive: 31.6 µM [inhibitor, single point]"},
      {"smiles": "COc1ccc(S(=O)(=O)N2CCN(Cc3cc(OC)c(O)c(OC)c3)CC2)cc1", "Potency": "inactive"},
      {"smiles": "CCOc1cc(C2C(C#N)=C(N)Oc3c2c(=O)oc2ccccc32)ccc1OC(=O)c1cccs1", "note": "(centres undefined)", "Potency": "active: 15.8 µM"},
      {"smiles": "O=C1CSC(=S)N1/N=C/c1ccc(O)c(O)c1O", "Potency": "inconclusive: 17.8 µM [inhibitor, partial curve]"},
      {"smiles": "COc1nc(Nc2nc3ccccc3c(=O)[nH]2)nc2ccc(C)cc12", "Potency": "inactive"},
      {"smiles": "Cc1csc2ncc(C(=O)N(Cc3ccccc3)c3ccccn3)c(=O)n12", "Potency": "active: 5.62 µM"},
      {"smiles": "Cc1ccc(-c2nc(SC(C)C(=O)c3c(N)n(C)c(=O)n(C)c3=O)n[nH]2)cc1", "note": "(centres undefined)", "Potency": "inactive"},
      {"smiles": "Cc1ccc(N/C=C/C(=O)c2ccco2)c(O)c1", "Potency": "inconclusive: 7.94 µM [inhibitor, full curve, poor fit]"},
      {"smiles": "CC(C)Cn1c(N)c(C(=O)CSc2nnc(C3CC3)n2C2CC2)c(=O)n(C)c1=O", "Potency": "inactive"},
      {"smiles": "NS(=O)(=O)c1ccc(N2N=C(c3ccccc3)CC2c2ccccc2)cc1", "note": "(centres undefined)", "Potency": "inconclusive: 3.98 µM [inhibitor, full curve, poor fit]"},
      {"smiles": "S=c1[nH]nc(-c2cccs2)n1/N=C/c1cn(-c2ccccc2)nc1-c1cccs1", "Potency": "inconclusive: 39.8 µM [inhibitor, single point]"},
      {"smiles": "O=C(Nc1cnn(Cc2ccc(Cl)cc2)c1)c1cccs1", "Potency": "inactive"},
      {"smiles": "C[C@]12CCC(=O)C[C@@H]1CC[C@@H]1[C@@H]2CC[C@]2(C)[C@@H](O)CC[C@@H]12", "Potency": "inactive"},
      {"smiles": "CCOC(=O)CSc1cc(CSc2ccccc2)nc(-c2ccccc2)n1", "Potency": "inconclusive: 6.31 µM [inhibitor, single point]"},
      {"smiles": "CCN1CCN(S(=O)(=O)c2cccc([N+](=O)[O-])c2)CC1", "Potency": "inconclusive: 7.08 µM [inhibitor, single point]"},
      {"smiles": "Cc1ccc(NN=C2c3ccccc3-c3ccccc32)cc1", "Potency": "active: 11.2 µM"},
      {"smiles": "O=C(OC[C@H]1O[C@@H](OC(=O)c2cc(O)c(O)c(OC(=O)c3cc(O)c(O)c(O)c3)c2)[C@H](OC(=O)c2cc(O)c(O)c(OC(=O)c3cc(O)c(O)c(O)c3)c2)[C@@H](OC(=O)c2cc(O)c(O)c(OC(=O)c3cc(O)c(O)c(O)c3)c2)[C@@H]1OC(=O)c1cc(O)c(O)c(OC(=O)c2cc(O)c(O)c(O)c2)c1)c1cc(O)c(O)c(OC(=O)c2cc(O)c(O)c(O)c2)c1", "Potency": "inconclusive: 0.708 µM [inhibitor, full curve, poor fit]"}
    ]}
  ]
}
